Among the data in patent publication US5143911A, “Antibiotic C-3 di-hydroxyphenyl substituted cephalosporin compounds, compositions and method of use thereof” (Bristol-Myers Squibb Company, priority 1990, dated 1992) are ED50 and MIC values, retold here.

In brackets after ≈: the same amount, converted by molar mass.

The test system of test [1] is P. aeruginosa A9843A. Conditions: Pseudomonas aeruginosa, im, read-out: PD50. How it is done:
In vivo antibacterial activity of this series of cephalosporins was determined against three bacterial infections, S. aureus Smith, E. coli Juhl and P. aeruginosa A9843A by intramuscular administration to mice just after the bacterial change.

The subject of test [2] is P. aeruginosa A9843A. The following applies: Pseudomonas aeruginosa, 18 h, pH 7.2. How it is done: Medium: MuellerHinton agar (pH = 7.2)
Incubation temperature: 32° C. 18 hr.
Inoculum size: 10^6 cells/ml

On to `CC(C)(O/N=C(\C(=O)NC1C(=O)N2C(C(=O)O)=C(/C=C/COC(=O)c3ccc(O)c(O)c3)CS[C@H]12)c1csc(N)n1)C(=O)O` (some centres unmarked) [Ic, 7-[(Z)-2-(2-Aminothiazol-4-yl)-2-(1-carboxy-1-methylethoxyimino)acetamido]-3-[(E)-3-(3,4-dihydroxybenzoyloxy)-1-propen-1yl]-3-cephem-4-carboxylic acid], for which, in test [1], the ED50 worked out at 0.25 mg/kg.

Regarding `CO/N=C(\C(=O)NC1C(=O)N2C(C(=O)O)=C(/C=C/COC(=O)c3ccc(O)c(O)c3)CS[C@H]12)c1nsc(N)n1` (some centres unmarked) [Ib, 7-[(Z)-2-(5-Amino-1,2,4-thiadiazol-3-yl)-2-methoxyiminoacetamido]-3-[(E)-3-(3,4-dihydroxybenzoyloxy)-1-propen-1-yl]-3-cephem-4carboxylic acid], the ED50 in test [1] came to 0.17 mg/kg.

Regarding `Nc1nc(/C(=N/O)C(=O)NC2C(=O)N3C(C(=O)O)=C(/C=C/COC(=O)c4ccc(O)c(O)c4)CSC23)cs1` (centres unmarked) [Id, 7-[(Z)-2-(2-Aminothiazol-4-yl)-2-hydroxyiminoacetamido]-3-[(E)-3l-(3,4-dihydroxybenzoyloxy)-1-propen-1-yl]-3-cephem-4-carboxylic acid], the MIC (usually the smallest concentration in the dilution series that meets the test's criterion for growth inhibition) in test [2] is over 100 µg/mL.

For the compound `CO/N=C(\C(=O)NC1C(=O)N2C(C(=O)O)=C(/C=C/COC(=O)c3ccc(O)c(O)c3)CS[C@H]12)c1csc(N)n1` (some centres unmarked) [Ia, 7-[(Z)-2-(2-Aminothiazol-4-yl)-2-methoxyiminoacetamido]-3-[(E)-3-(3,4-dihydroxybenzoyloxy)-1-propen-1-yl]-3-cephem-4-carboxylic acid], in test [2], the lowest concentration to inhibit growth (MIC) was 3.1 µg/mL (≈ 5.39 µM). For the same compound, the ED50 in test [1] was found to be 0.62 mg/kg.
